# According to PubChem BioAssay AID488969 (Vanderbilt High Throughput Screening Facility, 2010):
# In all, about 110,000 compounds were measured (“z-score”: median about -0.1, highest 2% from about 2 on). The list shows a part of the results. Calls of active or inactive are those of the source.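 The calls were made as follows: active = z-score in the third read window above 3 or below -3; inactive = the rest.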
# Molecular target: Metabotropic glutamate receptor 8 (Rattus norvegicus) (UniProt P70579)
# Chain of UniProt P70579 (P70579 whole entry, looked up): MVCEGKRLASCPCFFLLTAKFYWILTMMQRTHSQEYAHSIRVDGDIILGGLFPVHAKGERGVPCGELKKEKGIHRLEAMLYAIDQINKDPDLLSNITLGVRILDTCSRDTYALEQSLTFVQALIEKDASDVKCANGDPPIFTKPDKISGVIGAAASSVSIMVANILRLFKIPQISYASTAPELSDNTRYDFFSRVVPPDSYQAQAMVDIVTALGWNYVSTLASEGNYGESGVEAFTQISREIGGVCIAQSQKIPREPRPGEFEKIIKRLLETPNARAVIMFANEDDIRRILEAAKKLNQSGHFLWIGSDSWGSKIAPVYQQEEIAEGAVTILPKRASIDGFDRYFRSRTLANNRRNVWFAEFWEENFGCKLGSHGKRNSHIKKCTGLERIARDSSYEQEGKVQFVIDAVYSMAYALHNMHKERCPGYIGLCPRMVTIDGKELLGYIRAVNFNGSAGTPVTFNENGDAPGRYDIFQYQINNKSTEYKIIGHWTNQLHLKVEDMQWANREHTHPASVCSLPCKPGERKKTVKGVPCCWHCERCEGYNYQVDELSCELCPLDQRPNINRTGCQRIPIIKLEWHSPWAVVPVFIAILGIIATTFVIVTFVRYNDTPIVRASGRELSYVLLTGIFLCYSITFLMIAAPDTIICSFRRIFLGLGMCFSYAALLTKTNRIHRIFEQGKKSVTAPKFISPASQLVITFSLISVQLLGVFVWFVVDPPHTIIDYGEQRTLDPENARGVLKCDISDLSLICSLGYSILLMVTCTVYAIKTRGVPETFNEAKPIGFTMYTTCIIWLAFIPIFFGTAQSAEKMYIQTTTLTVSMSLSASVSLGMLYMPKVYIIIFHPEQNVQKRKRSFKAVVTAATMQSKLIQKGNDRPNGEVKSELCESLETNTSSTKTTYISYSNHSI
# Experiment: mGluR8 Gi/Go-coupled signaling modulation – cell-based, rat, thallium flux, HTS, primary screen (AID 488969)
# Conditions: HEK293 rat mGluR8, GIRK (G protein-gated inwardly rectifying potassium channel) thallium flux, FluoZin2; at 10 µM; stronger effect = higher value; submaximal glutamate (EC20) added with thallium
row,Compound,z-score
1,CCC(C)(C)C1CCC2(CC1)NC(CO)(CO)CO2 (configuration not stated),-0.0633
2,CC(=O)/C=C(/C)NC(Cc1c[nH]c2ccccc12)C(=O)O (configuration not stated),0.276
3,CCCCC1CCC(C(=O)NCc2ccc3c(c2)OCO3)CC1 (configuration not stated),-0.022
4,c1ccc(C2=Nc3ccccc3OC2)cc1,-0.499
5,Cc1ccccc1OCC(=O)Nc1ccc2c(c1)COC2=O,1.28
6,Cn1c(SCc2ccccc2Cl)nnc1-c1cnccn1,-0.387
7,Cc1cc(Cl)ccc1NC(=O)CCC(=O)O,-0.227
8,CC1/C(=N/O)CC(c2ccccc2)NC1c1ccccc1 (configuration not stated),-0.071
9,COC(=O)c1ccc(C2CC(=O)Nc3cc(OC)c(OC)cc32)cc1 (configuration not stated),0.0182
10,NC(=O)CSc1nnc(-c2cc(-c3cccs3)nc3ccccc23)o1,-0.323
11,Cc1nc2ccc(NC(=S)NC(C)C)cc2nc1C,-0.0416
12,COc1ccc(OC)c(NC(=O)CSc2nc(C)cs2)c1,0.389
13,CN(C(=O)c1ccc2c(c1)C(=O)N(CCC1=CCCCC1)C2=O)C1CCCCC1,0.422
14,CC(Sc1nc(-c2ccccc2)cc(C(F)(F)F)n1)C(=O)N1CCOCC1 (configuration not stated),-0.153
15,COc1ccc(C(=O)Nn2c(C)ccc2C)cc1OC,0.582
16,Clc1ccccc1-c1nc2ccccc2c2nncn12,-0.0267
17,Cc1sc2nc(C3CC3)nc(SCC(=O)N3CC(=O)Nc4ccccc43)c2c1C,active: 3.69
18,Cc1ccc(C(=O)Nc2nncs2)cc1S(=O)(=O)N1CCOCC1,0.137
19,COCc1cc(C)nc(NC2CCCCC2)c1C#N,-0.242
20,COC(=O)c1ccccc1NC(=O)n1cc(C)cn1,0.0551
21,CCCNC(=O)CCn1c(-c2ccc(C)cc2)cc(C(=O)OCC)c1C,-0.234
22,Cc1ccc(S(=O)(=O)N(C)CCCC(=O)n2nc(C)cc2C)cc1,0.215
23,O=C(COC(=O)Cc1ccc(S(=O)(=O)N2CCOCC2)s1)NCc1ccccc1,1.9
24,O=C(Nc1cccc(Oc2c(F)c(F)c(F)c(F)c2F)c1)N1C[C@@H]2C[C@@H](C1)c1cccc(=O)n1C2,0.599

row,Compound,z-score
1,Cc1ccc(NC(=O)Cc2nc(CCl)cs2)cc1,-0.0491
2,O=C(OCn1ncc(Br)c(Br)c1=O)c1c(F)cccc1F,0.165
3,FC(F)(F)c1ccc(N2CCN(c3cc(-c4ccccc4)nc4ncnn34)CC2)nc1,-0.657
4,CCOc1cc(/C=C(/C#N)c2nc3ccccc3[nH]2)ccc1Oc1ccc([N+](=O)[O-])cn1,-1.65
5,Cc1nc(S(=O)(=O)N(C)Cc2ccccc2)c(C#N)c(C)c1Cl,-0.0847
6,OCCN(CCO)c1ncnc2c1sc1nc(N3CCOCC3)c3c(c12)CCCC3,0.65
7,Cc1cc(N)c(-n2cc3c(=O)n(C)c(=O)n(C)c3c2)cc1C,0.679
8,O=C(NCC(=O)N(c1ccccc1)C(C(=O)NC1CCCC1)c1ccncc1)c1ccco1 (configuration not stated),-0.115
9,Cc1ccc(/C=N/NC(=S)N2CCOCC2)cc1,active: 4.72
10,O=C(CCCN1C(=O)c2ccccc2C1=O)Nc1c2c(nc3c1CCC3)CCC2,0.531
11,O=C(/C=C/c1ccc(Cl)cc1)NCc1cccs1,-0.307
12,O=C1C(=C2SCCCS2)CC/C1=C\c1ccc(F)cc1,-0.247
13,C=CCn1c(SCC(=O)Nc2ccc(C)cc2C)nnc1-c1cccnc1,-0.245
14,COc1ccc(C(C[N+](=O)[O-])c2c(-c3ccccc3)cc3ccccn23)cc1 (configuration not stated),0.715
15,Cc1ccc(/C=C/c2nnc(-c3ccccc3)o2)cc1,-0.0954
16,O=S(=O)(c1ccc(F)cc1)N1CCN(C(=S)NC2CCCC2)CC1,-0.225
17,COc1cc2nc(CN(C)Cc3nc4ccccc4c(=O)[nH]3)[nH]c(=O)c2cc1OC,-0.442
18,Cc1cccc(NC(=O)C2NC(=O)CC2c2ccccc2)c1C (configuration not stated),0.0322
19,COc1cccc(C(C(=O)NC2CCCCC2)N(C(=O)c2ccco2)c2ccc(-n3cnnn3)c(C)c2)c1 (configuration not stated),-0.0284
20,COc1ccc(C)cc1N(C(=O)COc1ccccc1)c1nc2ccccc2s1,-0.872
21,N=c1n(Cc2ccc(Cl)cc2)c2ccccc2n1CC(O)c1ccco1 (configuration not stated),0.315
22,OC(CN1CCCCC1)Cn1c(C(F)(F)F)nc2ccccc21 (configuration not stated),0.391
23,CC(NC(=O)Nc1ccc(Cl)cc1)C(c1cccs1)N1CCOCC1 (configuration not stated),1.04
24,COc1ccc(NC(=O)/C=C/c2ccc(F)cc2)cn1,-0.0123

row,Compound,z-score
1,CSc1nc2ccccc2n1CC(=O)Nc1c(C)cccc1C,-1.32
2,CC(C)C(=O)NC(c1ccco1)c1c(O)ccc2ccccc12 (configuration not stated),-0.289
3,Cc1ccc(-c2csc(NC(=O)C3CC=CCC3C(=O)O)c2C(=O)OC(C)C)cc1 (configuration not stated),0.131
4,COc1ccccc1CNC(=O)C(C)NS(=O)(=O)c1ccccc1 (configuration not stated),-0.89
5,CCn1c(=NC(=O)c2ccc(S(=O)(=O)N3CCOCC3)cc2)sc2cccc(OC)c21,-0.172
6,CC(=O)N1CCc2cc(S(=O)(=O)CCC(=O)NCc3cccs3)ccc21,0.0317
7,CCOC(=O)C(=O)NNc1ccc(C)cc1,0.000829
8,O=S(=O)(NCC1CCCO1)c1ccc(S(=O)(=O)N2CCCC2)cc1 (configuration not stated),0.352
9,[O-]/[N+](=C/c1ccc(F)cc1)c1ccccc1,-0.26
10,CN(C)S(=O)(=O)c1ccc(C(=O)NC(=O)CSc2ccccc2)cc1,0.101
11,CCOc1ccccc1CNC(=O)CCNC(=O)Cn1ccc2ccccc2c1=O,0.269
12,COc1nc(-c2ccccc2)cc(-c2ccc(OC)c(OC)c2)n1,-0.612
13,COCCOc1ccc(C(F)(F)F)cc1NC(=O)c1ccc(C)cc1,-0.204
14,COc1ccccc1CNC(=O)c1ccc(NS(=O)(=O)c2c(C)noc2C)cc1,-0.259
15,Cc1ccc2nc(C)cc(N3CCOCC3)c2c1,1.22
16,Cn1c(SCC(=O)c2ccc3c(c2)Cc2ccccc2-3)nnc1-c1ccccc1,0.0103
17,CCN1C(=O)/C(=C2\C=Cc3ccccc3N2CC)OC1=S,-0.536
18,FC(F)(F)c1cc(-c2ccco2)nc(NCc2ccco2)n1,-0.773
19,CCCCCCC(=O)Nc1nc(C)c(-c2csc(Nc3cc(Cl)ccc3C)n2)s1,0.0842
20,CCCn1c(N2CCN(C)CC2)nc2c1c(=O)[nH]c(=O)n2C,0.044
21,Cc1cc(C)n2nc(Cc3ccccc3)nc2n1,-0.125
22,COc1cc(NS(=O)(=O)c2ccc(Br)s2)cc(OC)c1,0.398
23,O=C(CCN1C(=O)COc2ccccc21)NCCCN1CCN(c2ccccc2F)CC1,0.474
24,O=C(CCSc1nc(-c2ccco2)cc(C(F)(F)F)n1)NCc1cccs1,-0.574
